This passage reports self-cleavage results from the RNAGym collection of RNA variant scans (doi:10.7554/elife.90254).

First the molecules themselves.
B1: LINE1-mini (parent)
chain: GGCAGAGCUCAACACAGCGUGGCAAAGUGGCUGUGGCUAGACUGCC

The source gives no read counts; variants with many changes may rest on few reads.

Variants of B1 are the subject of the data set. Nature of the data set: self-cleavage, relative activity (ratio to wild type); higher = more cleavage; in vitro, sequencing; the parent is a self-cleaving ribozyme.
For GGCAGAGCUCAACACAGCGAGGCAAAGUGGUUGUGGGUAGACUGCC [U20A C31U C37G], the self-cleavage is 0.03.

As to GGCAGAGCUCAACACAGCGCGGCAAAGUAGCUGUUGCUCGACUUCC [U20C G29A G35U A39C G44U], the self-cleavage came out at 0.02.

Regarding GGCAGAGCUCAACACAGCGCGGCAAAGUGGCUGUGGAUAGACUCCC [U20C C37A G44C], the self-cleavage worked out at 0.38.

In the case of GGCAGAGCUCAACACAGCGAGGCAAAGUGGCGGUGGCUCGACUGCC [U20A U32G A39C], the self-cleavage is 0.09.

For GGCAGAGCUCAACACAGCGAGGCAAAGUGGCUAUGGGUAGACUGCC [U20A G33A C37G], the self-cleavage was found to be 0.03.

Regarding GGCAGAGCUCAACACAGCGAGAACAAGUGAAUGUGGCUAGACUGCC [U20A G22A C23A A24C G30A C31A], the self-cleavage was determined as 0.27.

In the case of GGCAGAGCUCAACACAGCGCGGCAAAGUGGCUGUUGCUAGAGUGCC [U20C G35U C42G], the self-cleavage is 0.03.

Consider GGCAGAGCUCAACACAGCGCGGCAAAGUGGCUGUGCCCAGUCUGCC [U20C G36C U38C A41U], for which the self-cleavage came to 0.22.

As to GGCAGAGCUCAACACAGCGCGGCAAAGUGCCUGUUGCGAGACUGCC [U20C G30C G35U U38G], the self-cleavage was 0.04.

On to GGCAGAGCUCAACACAGCGAAGCAAAGUGGCUGUCGCUAGACUGCC [U20A G21A G35C], for which the self-cleavage was found to be 0.25.

In the case of GGCAGAGCUCAACACAGCGCGGCAAAGUGGUUGUGGCUACACUGCC [U20C C31U G40C], the self-cleavage was 0.01.

With GGCAGAGCUCAACACAGCGAAGCAAAAUGGCUGUGGCUAGAUUGCC [U20A G21A G27A C42U], the self-cleavage is 1.49.

As to GGCAGAGCUCAACACAGCGCGGUAAAGUGGCUAUGGCUAGACUGCC [U20C C23U G33A], the self-cleavage is 0.7.

For the variant GGCAGAGCUCAACACAGCGAGGCAAAAUGGCUGUGGCUAGCCUGCC [U20A G27A A41C], the self-cleavage was determined as 0.07.

For the variant GGCAGAGCUCAACACAGCGCGGCAAAGUAGCUGUGGCUGGACUGCC [U20C G29A A39G], the self-cleavage is 0.04.

Take GGCAGAGCUCAACACAGCGCGGCAAAAUGGAUGUGGCUAUACUGCC [U20C G27A C31A G40U]: the self-cleavage amounted to 0.09.

GGCAGAGCUCAACACAGCGAGGCAAAGUGGCUGAGGUUAGACUGCC [U20A U34A C37U]: the self-cleavage stood at 0.02.

On to GGCAGAGCUCAACACAGCGCGGCAAAGUGGCUGUGGCUAGCCUGAC [U20C A41C C45A], for which the self-cleavage came to 0.

As for GGCAGAGCUCAACACAGCGCGGCCAAGUCGCUGUGGCUAGACUGCC [U20C A24C G29C], the self-cleavage amounted to 2.53.

For GGCAGAGCUCAACACAGCGAUGCAAAGUGGUUGUGGCUAGACUGCC [U20A G21U C31U], the self-cleavage is 0.2.

Consider GGCAGAGCUCAACACAGCGCAGCAAAGUGGCUGUGGCUAGUCUGCC [U20C G21A A41U], for which the self-cleavage was 0.37.

Consider GGCAGAGCUCAACACAGCGCGGCAAAGUGGCUCUGGCUAGACUGUC [U20C G33C C45U], for which the self-cleavage worked out at 0.01.

Consider GGCAGAGCUCAACACAGCGCGGUAAAGUGGCUGUGGCUUGACUGCC [U20C C23U A39U], for which the self-cleavage was 0.6.

Regarding GGCAGAGCUCAACACAGCGCGGCAAAAUGGCUGUGGUUGGACUGCC [U20C G27A C37U A39G], the self-cleavage worked out at 0.02.

GGCAGAGCUCAACACAGCGAGGCAAAGUGGCUGGGGCUAGACUCCC [U20A U34G G44C]: the self-cleavage was 0.01.

Consider GGCAGAGCUCAACACAGCGACGCAAAGUGGCUGUUGCUAGACUGCC [U20A G21C G35U], for which the self-cleavage was 0.02.

For GGCAGAGCUCAACACAGCGAGGCAAAGUGGCUGUGUCUAGACUCCC [U20A G36U G44C], the self-cleavage worked out at 0.18.

Regarding GGCAGAGCUCAACACAGCGCGGCAAAGUGACUGUGGCUAGACUGUC [U20C G30A C45U], the self-cleavage worked out at 0.33.

With GGCAGAGCUCAACACAGCGAUGCAAAGUGGCUGUGGAUAGUCUGCC [U20A G21U C37A A41U], the self-cleavage amounted to 0.05.

In the case of GGCAGAGCUCAACACAGCGAGGCAAAGUGGCUGUGCCUAGACUUCC [U20A G36C G44U], the self-cleavage worked out at 0.05.

Turning to GGCAGAGCUCAACACAGCGAGGCAAAGUGGUUGUGGCUAGUCUGCC [U20A C31U A41U], the self-cleavage is 0.13.

With GGCAGAGCUCAACACAGCGCGGGAAAGUGGCUGUGGCUAAACUGCC [U20C C23G G40A], the self-cleavage came to 0.09.

Turning to GGCAGAGCUCAACACAGCGAGGCAAAACGGGUGUGGAUAGACUGCC [U20A G27A U28C C31G C37A], the self-cleavage is 0.02.

GGCAGAGCUCAACACAGCGAAGCAAAGUGGGUGUGGCUAUACUGCC [U20A G21A C31G G40U]: the self-cleavage is 0.03.

On to GGCAGAGCUCAACACAGCGAGGCAAAGUGGUUGUGGCUAGGCUGGC [U20A C31U A41G C45G], for which the self-cleavage was found to be 0.05.

Regarding GGCAGAGCUCAACACAGCGCCGGAAAUUGGCUGUGACUAGACUGCC [U20C G21C C23G G27U G36A], the self-cleavage was determined as 0.19.

Regarding GGCAGAGCUCAACACAGCGCGAGAAAGUGUCUGUGGCUAGACCGCC [U20C G22A C23G G30U U43C], the self-cleavage was 0.04.

With GGCAGAGCUCAACACAGCGAGACAAAGUGGCUGUGGCUAGAGUGCC [U20A G22A C42G], the self-cleavage came to 0.04.

On to GGCAGAGCUCAACACAGCGCGGCAAAGUGGCUUUGGCUAGACUGCA [U20C G33U C46A], for which the self-cleavage stood at 0.39.

As to GGCAGAGCUCAACACAGCGCGGCAAAGUGGCUUUGGCUAGACUGCU [U20C G33U C46U], the self-cleavage was found to be 0.05.

Regarding GGCAGAGCUCAACACAGCGCGGGAAAGUGGCUGUGGCUAGACAGCC [U20C C23G U43A], the self-cleavage amounted to 0.06.

Consider GGCAGAGCUCAACACAGCGAGGCAAAGUGGCUGUGACUAGCCUGCC [U20A G36A A41C], for which the self-cleavage amounted to 0.13.

With GGCAGAGCUCAACACAGCGAGGCAAAGUGGCUUUGGCUAGACUGUC [U20A G33U C45U], the self-cleavage turned out to be 0.05.

With GGCAGAGCUCAACACAGCGAGACAAAGUGGCGGUGGCUAGACUGCC [U20A G22A U32G], the self-cleavage was found to be 0.06.

As for GGCAGAGCUCAACACAGCGCGUGAAAGUGGCUUUGGCUAGACUGCC [U20C G22U C23G G33U], the self-cleavage is 1.1.

On to GGCAGAGCUCAACACAGCGCGGCAAAGUGGCUCGGGCUAGACUGCC [U20C G33C U34G], for which the self-cleavage came to 0.17.

Turning to GGCAGAGCUCAACACAGCGAGGCAAAGUGGCUGUGGAUAGAUGGCG [U20A C37A C42U U43G C46G], the self-cleavage is 0.

Turning to GGCAGAGCUCAACACAGCGCGGCAAAGUGGAUGUGGCUAGACUACC [U20C C31A G44A], the self-cleavage came out at 0.04.

For the variant GGCAGAGCUCAACACAGCGAGGCAAAGUGGCUGUGGAUAGAAUGCC [U20A C37A C42A], the self-cleavage turned out to be 0.02.

As to GGCAGAGCUCAACACAGCGAAGCAAAGUGGCUGAGGCUAGACUGCC [U20A G21A U34A], the self-cleavage is 0.14.

Consider GGCAGAGCUCAACACAGCGCGGCAAGGUGUCUGUAGCUAGACUGCU [U20C A26G G30U G35A C46U], for which the self-cleavage was found to be 0.02.

Regarding GGCAGAGCUCAACACAGCGCGGCAGAGUGGCUGUGGCUAGUCUGCA [U20C A25G A41U C46A], the self-cleavage came to 0.03.

In the case of GGCAGAGCUCAACACAGCGAGGCAAAGGGGCUGUGGCUAGGCUGCC [U20A U28G A41G], the self-cleavage is 0.05.

For the variant GGCAGAGCUCAACACAGCGCAGCAAAGUGGCUGUGUGUUGACUGCC [U20C G21A G36U C37G A39U], the self-cleavage turned out to be 0.01.

GGCAGAGCUCAACACAGCGCGGCAAAGUGGUUGUGGUUAGACAGCC [U20C C31U C37U U43A]: the self-cleavage is 0.01.

Turning to GGCAGAGCUCAACACAGCGCGGCAAAGUGGCUCUGGCUAGAAUGCU [U20C G33C C42A C46U], the self-cleavage came out at 0.02.
